# Data: the BET-seq Pho4 binding data (Le et al. 2018)
# The other results are listed elsewhere or left out. Values were computed here from the reads of four pooled replicates and scatter widely.
# Molecular target: T1, Pho4 (S. cerevisiae) (UniProt P07270)
# T1 sequence: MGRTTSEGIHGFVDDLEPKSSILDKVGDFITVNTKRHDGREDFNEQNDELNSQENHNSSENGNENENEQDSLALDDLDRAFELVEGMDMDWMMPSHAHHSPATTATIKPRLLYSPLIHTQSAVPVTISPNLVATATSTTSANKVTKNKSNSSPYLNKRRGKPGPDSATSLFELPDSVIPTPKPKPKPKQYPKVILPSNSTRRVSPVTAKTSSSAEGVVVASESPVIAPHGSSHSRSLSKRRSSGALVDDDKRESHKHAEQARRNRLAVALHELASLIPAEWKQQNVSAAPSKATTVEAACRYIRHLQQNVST
# Assay: relative binding free energy (BET-seq); higher = weaker binding
# Settings: reference: library average
row,Sequence,relative binding free energy [kcal/mol]
1,GATAACACGTGTTTGG,0.15
2,GGCGGCACGTGAATGT,0.24
3,GTGTTCACGTGTCGGC,0.3
4,AGATGCACGTGATGTG,0.04
5,TCATGCACGTGTTGTA,0
6,GTATGCACGTGGGAGG,0
7,TAATTCACGTGTGTGC,0.38
8,AAAAGCACGTGGATGG,-0.1
9,GGGACCACGTGTGTGA,-0.03
10,GTGGGCACGTGTTCAT,-0.07
11,GTTTCCACGTGTAATT,0.34
12,CATTACACGTGGGTGG,-0.07
13,TTTGGCACGTGCTGGA,-0.1
14,TGGGTCACGTGTCGAG,0.17
15,TGGTGCACGTGACGTG,0.14
16,TCTAGCACGTGTGAGT,-0.1
17,GGATGCACGTGGATGG,0.01
18,TGTTTCACGTGAGCAC,0.59
19,CTATTCACGTGGGATG,0.12
20,GAAGTCACGTGAGGGT,0.35
21,GAGGTCACGTGTAGCA,0.19
22,TAGTGCACGTGTAAGA,0.13
23,TGCGGCACGTGGAGAT,-0.04
24,TTTATCACGTGATCTA,0.24
25,TTAGACACGTGGCTTT,-0.11

row,Sequence,relative binding free energy [kcal/mol]
1,TCTTTCACGTGTCGTA,0.27
2,TTGGGCACGTGGGAGT,-0.17
3,TCACGCACGTGGATGG,0.03
4,ATTTACACGTGCAGGT,0.27
5,AGGTGCACGTGATGTG,0.06
6,GGTTGCACGTGCTTAG,0.06
7,TTTAGCACGTGGCTGA,-0.22
8,TTCTTCACGTGCCGGT,0.29
9,GTGGGCACGTGTTTGC,0.02
10,AGTATCACGTGTGCGT,0.18
11,TGCGTCACGTGAGTGT,0.25
12,GTTGGCACGTGAGTAG,0.17
13,GTGGGCACGTGGCGTC,-0.1
14,GTGTTCACGTGGTTCG,0.4
15,GTTGCCACGTGAGGCG,0.2
16,TTGATCACGTGGCGTG,0.02
17,TCGCGCACGTGATGGG,-0.02
18,CAATCCACGTGTGTGT,0.3
19,TTCTTCACGTGGTTAA,0.26
20,TGGACCACGTGGGGCT,-0.22
21,TACGGCACGTGAGGAT,0.24
22,TGTACCACGTGAATTT,0.28
23,TGCGACACGTGTGGTG,-0.07
24,TTAGGCACGTGTTAGC,-0.16
25,GTATGCACGTGAGTTG,0.23

row,Sequence,relative binding free energy [kcal/mol]
1,CTAGGCACGTGAGGTG,0.17
2,TTGGTCACGTGTTTTC,0.13
3,GTTGGCACGTGGGTAA,-0.15
4,AGTGTCACGTGCACTG,0.11
5,TAATACACGTGTGTTT,0.14
6,TTTTGCACGTGTACAA,0.09
7,TGGACCACGTGCTGGT,0.01
8,TGATGCACGTGTGGAA,-0.02
9,AGTTGCACGTGCGAGT,0
10,CGTAGCACGTGAGTTG,0.32
11,TTTAACACGTGACGTG,0.14
12,TGCGCCACGTGAGGGC,0.18
13,TAGTTCACGTGGTTCT,0.3
14,TATGACACGTGAAGGA,0.24
15,GTTGCCACGTGGAAGT,0.04
16,AATGTCACGTGCGGAT,0.04
17,TAACACACGTGTTGGG,-0.02
18,GGTGTCACGTGGTGCT,0.16
19,AATCTCACGTGTTGTG,0.08
20,TTTATCACGTGCCGTT,-0.05
21,AGTAGCACGTGTGTGG,-0.01
22,GTTTGCACGTGAGAGG,0.19
23,CTGTTCACGTGGTATA,0.18
24,GTATCCACGTGGGCTT,0.03
25,TAGGTCACGTGGATTA,0.1

row,Sequence,relative binding free energy [kcal/mol]
1,GGGCTCACGTGTTGTT,0.23
2,GTTGTCACGTGATTCT,0.22
3,TTCTACACGTGTAAGG,0.35
4,TGTTGCACGTGTTCCG,-0.03
5,ATTGACACGTGTGTAG,0.02
6,TCGATCACGTGGTGAT,0.08
7,TTTCGCACGTGAGCTT,0.09
8,TATATCACGTGAGAAG,0.32
9,GTGAGCACGTGTAGAG,-0.09
10,GAAGGCACGTGGGTCT,-0.13
11,GGGGGCACGTGAAATT,0.18
12,TAAGCCACGTGGTGGC,-0.07
13,GGGTTCACGTGCGACT,0.45
14,TTCTGCACGTGTTAGA,0.14
15,GGATGCACGTGTTACG,-0.03
16,ATATGCACGTGCGTAG,-0.16
17,AGTGACACGTGGGCAG,-0.12
18,CATGTCACGTGTGATG,0.14
19,GGTTGCACGTGTATAA,0.04
20,GCTTACACGTGAAGGT,0.48
21,AGAGGCACGTGGGTCG,-0.27
22,ATAGACACGTGTTTTG,-0.01
23,ATTAGCACGTGTGGAA,-0.13
24,ATGGGCACGTGAGGAA,0.07
25,TTTGGCACGTGAAGGA,0.18

row,Sequence,relative binding free energy [kcal/mol]
1,AGGAACACGTGAAGGT,0.19
2,GTAGGCACGTGTACTG,0.05
3,TGGGGCACGTGTTGTA,-0.05
4,CGTTTCACGTGAAGTA,0.46
5,GAGGGCACGTGCTGCG,-0.11
6,GTCGGCACGTGAAGGG,0.23
7,GTAGACACGTGGCGAG,0.04
8,GTGCGCACGTGGTTCT,-0.11
9,TATTTCACGTGATAGA,0.26
10,TAGATCACGTGGTCTT,0.19
11,GAGTGCACGTGCGTAT,-0.08
12,TAGGGCACGTGTGACA,-0.05
13,TGGAGCACGTGTAGGA,-0.08
14,TTGTCCACGTGTGGAT,0.1
15,CGGTGCACGTGGAGTG,0.02
16,TATGGCACGTGCTTGT,-0.11
17,TTGTGCACGTGTGTAA,0.1
18,TTGCTCACGTGTCGTG,0.09
19,GTCTGCACGTGTGTGG,0.08
20,CGAGTCACGTGGTGCG,0.16
21,ACAGGCACGTGAAGGT,0.05
22,GTTTTCACGTGTAGGA,0.21
23,AAGGGCACGTGGGTCA,-0.27
24,AGGGGCACGTGCAAGC,-0.16
25,CGTCGCACGTGGGGTG,-0.21

row,Sequence,relative binding free energy [kcal/mol]
1,CAGTGCACGTGTAATT,0.03
2,TTTGGCACGTGCAATA,-0.06
3,GTTTTCACGTGTTGCC,0.38
4,GTGTTCACGTGGATGG,0.34
5,GAGTTCACGTGATGAA,0.51
6,AGTTTCACGTGTGTTT,0.26
7,TGTTTCACGTGTAAGG,0.4
8,TGGATCACGTGTATAA,0.21
9,AATGACACGTGTTAAT,0.1
10,TAGATCACGTGCGTGT,0.01
11,GAAGGCACGTGGTCGG,-0.14
12,AAGTGCACGTGCGGTA,-0.08
13,GGGAGCACGTGCGAGG,-0.18
14,TTTGGCACGTGCTGAT,-0.05
15,TTGTTCACGTGATACT,0.32
16,CCGGGCACGTGCGGTG,-0.19
17,GATTGCACGTGGTATA,-0.01
18,ATCTTCACGTGGTCTG,0.22
19,AGATTCACGTGTGGTG,0.34
20,GGATGCACGTGTGAGG,0.02
21,TTTGTCACGTGAGCGA,0.17
